# Measured values published in the supplement of paper PMC8728848.
# The full list was thinned out, with the strongest signals kept by preference.
# Assays:
# Experiment in all cases: glycan array binding signal (z-score within array); higher = stronger binding
# Conditions in all cases: glycan notation: IUPAC condensed, linker removed
# [1] = tested on: GlcNAc(a1-4)Gal(b1-3)GlcNAc
# Procedure, shortened: (§1)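 The binding signal is a Z-score computed within each array. Data were drawn from 3228 arrays in the Consortium for Functional Glycomics database, restricted to those with a known protein sequence. Scores were averaged over arrays of the same protein sequence at different concentrations or buffers, and over linkers, and negative values can be taken as non-binding.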
# [2] = tested on: GlcNAc(b1-2)Gal(b1-3)GalNAc
# Procedure, shortened: as §1
# [3] = tested on: GlcNAc(a1-4)Gal(b1-4)GalNAc
# Procedure, shortened: as §1
# [4] = tested on: GlcNAc(a1-4)Gal(b1-4)GlcNAc(b1-3)Gal(b1-4)[Fuc(a1-3)]GlcNAc(b1-3)Gal(b1-4)[Fuc(a1-3)]GlcNAc
# Procedure, shortened: as §1
# [5] = tested on: GlcNAc(a1-6)Gal(b1-4)GlcNAc
# Procedure, shortened: as §1
# [6] = tested on: GlcNAc(a1-3)Gal(b1-4)GlcNAc
# Procedure, shortened: as §1
# [7] = tested on: GlcNAc(a1-4)Gal(b1-4)GlcNAc(b1-3)Gal(b1-4)Glc
# Procedure, shortened: as §1
# [8] = tested on: GlcNAc(a1-4)Gal(b1-4)GlcNAc
# Procedure, shortened: as §1
# [9] = tested on: GlcNAc(a1-4)Gal(b1-4)GlcNAc(b1-3)Gal(b1-4)GlcNAc
# Procedure, shortened: as §1
# [10] = tested on: GlcNAc(b1-2)Gal(b1-3)GlcNAc
# Procedure, shortened: as §1
substance,measurement,setting,value
M-Ficolin (Homo sapiens) (chain not printed),glycan array binding signal (z-score),[1],-0.182
same,glycan array binding signal (z-score),[2],-0.264
M-Ficolin G221F (Homo sapiens) (chain not printed),glycan array binding signal (z-score),[3],-0.053
MBP (Homo sapiens) (chain not printed),glycan array binding signal (z-score),[1],-0.412
Meso764 (Homo sapiens) (chain not printed),glycan array binding signal (z-score),[4],3.71
H-Ficolin (Homo sapiens) (chain not printed),glycan array binding signal (z-score),[1],1.75
same,glycan array binding signal (z-score),[3],5.6
same,glycan array binding signal (z-score),[4],9.73
same,glycan array binding signal (z-score),[5],2.01
CLEC-2 (Homo sapiens) (chain not printed),glycan array binding signal (z-score),[6],-0.07
same,glycan array binding signal (z-score),[7],0.275
same,glycan array binding signal (z-score),[4],1.21
same,glycan array binding signal (z-score),[8],-0.061
Siglec-2 (Homo sapiens) (chain not printed),glycan array binding signal (z-score),[6],-0.197
same,glycan array binding signal (z-score),[9],-0.182
FGF2 (chain not printed),glycan array binding signal (z-score),[9],-0.491
same,glycan array binding signal (z-score),[7],-0.285
same,glycan array binding signal (z-score),[4],2
Gal 3 (Homo sapiens) (chain not printed),glycan array binding signal (z-score),[3],-0.108
M-Ficolin G221F A256V (Homo sapiens) (chain not printed),glycan array binding signal (z-score),[3],-0.008
same,glycan array binding signal (z-score),[4],-0.046
same,glycan array binding signal (z-score),[2],-0.308
Serum Amyloid P component (Homo sapiens) (chain not printed),glycan array binding signal (z-score),[10],-0.629
Collectin K1 (Homo sapiens) (chain not printed),glycan array binding signal (z-score),[6],-0.195
L-Ficolin (Homo sapiens) (chain not printed),glycan array binding signal (z-score),[6],4.17
same,glycan array binding signal (z-score),[5],5.31
